# Measured values published in PMC4336329 (PLoS ONE, 2015).
# Hit rate of the full screen: of about 310,000 compounds, about 14,000 (4.5%) showed an effect of 50% or more. The effect is printed as a negative number. Some of the results follow.
# Molecular target: human ether-à-go-go-related gene (hERG) potassium channel (human, UniProt Q12809)
# Assay: primary screen, population patch clamp on CHO cells stably expressing hERG
# 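Note: peak tail current of the secondary pulse compared with the same well before compound.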
# human ether-à-go-go-related gene (hERG) potassium channel, sequence (Q12809 whole entry, looked up): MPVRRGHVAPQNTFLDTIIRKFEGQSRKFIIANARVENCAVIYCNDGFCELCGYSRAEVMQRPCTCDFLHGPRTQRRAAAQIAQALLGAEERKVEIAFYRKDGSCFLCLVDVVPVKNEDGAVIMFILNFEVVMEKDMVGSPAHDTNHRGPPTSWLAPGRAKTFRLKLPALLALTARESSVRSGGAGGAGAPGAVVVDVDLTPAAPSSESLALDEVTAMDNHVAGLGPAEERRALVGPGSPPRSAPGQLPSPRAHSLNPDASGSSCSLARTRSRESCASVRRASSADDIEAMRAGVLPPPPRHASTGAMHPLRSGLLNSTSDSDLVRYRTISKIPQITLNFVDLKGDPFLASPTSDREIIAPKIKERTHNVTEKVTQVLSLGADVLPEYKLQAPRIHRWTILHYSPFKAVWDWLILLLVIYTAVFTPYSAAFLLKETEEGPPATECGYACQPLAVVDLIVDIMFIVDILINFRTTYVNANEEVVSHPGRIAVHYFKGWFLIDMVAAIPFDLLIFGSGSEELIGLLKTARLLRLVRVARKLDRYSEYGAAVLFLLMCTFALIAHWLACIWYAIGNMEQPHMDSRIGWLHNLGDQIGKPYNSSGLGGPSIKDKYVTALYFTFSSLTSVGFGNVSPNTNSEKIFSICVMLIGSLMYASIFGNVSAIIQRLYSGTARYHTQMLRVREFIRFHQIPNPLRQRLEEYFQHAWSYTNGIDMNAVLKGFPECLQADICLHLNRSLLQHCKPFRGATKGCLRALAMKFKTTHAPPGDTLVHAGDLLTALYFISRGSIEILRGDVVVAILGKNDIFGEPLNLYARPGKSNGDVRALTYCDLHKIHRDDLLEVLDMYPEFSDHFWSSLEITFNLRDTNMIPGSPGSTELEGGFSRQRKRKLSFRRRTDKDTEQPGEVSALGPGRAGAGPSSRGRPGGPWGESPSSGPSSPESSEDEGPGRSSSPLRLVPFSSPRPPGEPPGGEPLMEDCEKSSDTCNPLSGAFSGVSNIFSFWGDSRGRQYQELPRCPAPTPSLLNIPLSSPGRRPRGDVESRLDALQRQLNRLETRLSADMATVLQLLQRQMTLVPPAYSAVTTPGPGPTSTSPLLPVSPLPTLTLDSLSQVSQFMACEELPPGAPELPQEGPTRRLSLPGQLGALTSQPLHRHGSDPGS
row,SMILES,"hERG current change (%, negative = inhibition) at 10uM [%]"
1,C=CCOc1cccc(C(=O)NC(c2ccccc2)C(C)C)c1 (stereo not drawn),6.23
2,O=C(CSc1nc2cc3c(cc2c(=O)n1CCC1=CCCCC1)OCO3)NCc1ccco1,12.8
3,O=C(CCCOc1ccccc1)N1CCN(S(=O)(=O)c2cccs2)CC1,-2.04
4,COc1ccc(Nc2ccccc2)c(C)c1,1.41
5,C=CCNC(=O)COC(=O)COc1ccc(Cl)cc1C,-3.32
6,Cc1cc(C)n2nc(C(=O)OCC(=O)NCc3ccccc3)nc2n1,16.9
7,Cc1ccc(CN2CCSc3ccc(C(=O)NCc4ccco4)cc32)cc1,-14.4
8,COc1ccccc1NS(=O)(=O)c1cccc(C(=O)N/N=C/c2c(CO)cnc(C)c2O)c1,15.1
9,COc1ccc(CCc2nc(C)ccc2O)cc1.Cl,9.9
10,c1ccc2c(c1)nc(NCc1ccc3c(c1)OCO3)n2CCN1CCOCC1,-66.8
11,O=C(NCc1cccs1)C1CCC(CNS(=O)(=O)c2cccc3nsnc23)CC1 (stereo not drawn),3.29
12,COc1ccccc1C(OC(=O)c1ccco1)C(=O)NCc1ccc(F)cc1 (stereo not drawn),-13.9
13,C/C(CC(=O)Nc1cccc(Cl)c1C)=N\NC(=O)C(=O)NCC(C)C,-20
14,CN1CCN(S(=O)(=O)c2cccc(C(=O)NCCOc3ccccc3F)c2)CC1,-15.4
15,COc1ccccc1CN1CC(C(=O)N2CCC(OC)CC2)CCC1=O (stereo not drawn),6.45
16,CCN(CC)CCN1C(=O)c2oc3ccccc3c(=O)c2C1c1ccc(C)cc1 (stereo not drawn),-26.8
17,O=C(CNC(=O)Cc1ccccc1)NCC(=O)OCc1ccc(C(=O)c2ccccc2)cc1,-5.33
18,Cn1cc(P(=S)(N2CCOCC2)N2CCOCC2)cc1P(=S)(N1CCOCC1)N1CCOCC1,17.6
19,CC(=O)Cc1cc2cc([N+](=O)[O-])ccc2oc1=O,2.29

row,SMILES,"hERG current change (%, negative = inhibition) at 10uM [%]"
1,CCc1cc(C(=O)N2CCCC(CNC(=O)c3ccc(-c4ccccc4)cc3)C2)no1 (stereo not drawn),-58.1
2,Cc1ccc(OC(C)C(=O)N2CCc3ccccc32)cc1 (stereo not drawn),10.7
3,CCOC(=O)c1ccc(NC(=O)c2nc[nH]c2C(=O)NCc2ccccc2)cc1,1.22
4,CCOCc1nnc(NC(=O)c2ccc(NC(C)=O)cc2)s1,45.9
5,CCN(c1cc(C)cc(C)c1)S(=O)(=O)c1nnc(NC(=O)C(C)C)s1,9.34
6,CNC(=S)N(CCc1c(C)[nH]c2ccc(Cl)cc12)Cc1cccs1,-17
7,CCCSc1nnc(NC(=O)c2ccco2)s1,2.42
8,Cn1c(Sc2ccccc2Cl)c(C=O)c2ccccc21,3.6
9,O=C(C[n+]1cc(-c2ccc(Cl)cc2)n2c1CCCCC2)c1ccccc1.[Br-],-12.5
10,CCOC(=O)c1c(NC(=O)COc2ccc3ccc(=O)oc3c2)sc(C(=O)N(C)C)c1C,20.9
11,CN(C)/C=N/c1sc2c(c1C#N)CCCCC2,-9.89
12,C=CCn1c(SCC(N)=O)nc(C)cc1=O,18.4
13,Cc1cc(C(F)(F)F)c(C#N)c(SCC(=O)Nc2nc3ccccc3s2)n1,-16.1
14,Cc1nnc(SCc2ccccc2)n1N,8.61
15,CC1CCN(S(=O)(=O)c2ccc(C(=O)N3CCN(c4ccccc4F)CC3)cc2)CC1,13.1
16,COc1ccc(-c2cc(-c3ccccc3)nc(Cl)n2)cc1OC,18.2
17,Nc1c(C(=O)NCc2cccnc2)sc(=S)n1-c1ccccc1,-6.5
18,COc1ccc(CC(=O)O/N=C(\N)Cc2cccc3ccccc23)cc1,13.4
19,Cc1cccc(-c2noc(CN(C)C(=O)c3ccoc3C)n2)c1,11.6

row,SMILES,"hERG current change (%, negative = inhibition) at 10uM [%]"
1,O=C(O)c1cc(S(=O)(=O)Nc2cccc(Oc3ccccc3)c2)ccc1Br,18.7
2,COc1ccc(-c2csc(NC(=O)C3CCN(C(=O)c4ccc(F)cc4)CC3)n2)cc1OC,-13.8
3,Cc1c(C(=O)N2CCN(Cc3cccs3)CC2)oc2ccccc12,-28.9
4,CC(C)c1cc(=O)n2[nH]c(N)nc2n1,7.45
5,Cc1ccc(NS(=O)(=O)c2ccccc2)c2c1CC(C)(C)O2,-2.88
6,O=C(O)CCN1CC2([N+](=O)[O-])CC=C(OCCO)C([N+](=O)[O-])(C1)C2 (stereo not drawn),20.1
7,NC(=O)c1c(/N=C/c2cccs2)sc2c1CCCC2,5.92
8,FC(F)(F)c1cc(NC2CCCCC2)ccn1,9.54
9,CC(C)(C)C(=O)Nc1ccccc1C(=O)Nc1cccnc1,-6.18
10,CS(=O)(=O)N(CC(=O)N1CCN(Cc2ccccc2)CC1)c1ccccc1F,-5.93
11,c1ccc(-c2noc(-c3ccc4c(c3)OCO4)n2)cc1,-3.33
12,CCOCC(=O)Nc1nc2ccc(OC)cc2s1,-3.59
13,CC(=O)N1N=C(c2cccc([N+](=O)[O-])c2)OC1(C)CC(=O)Nc1ccccc1 (stereo not drawn),-12
14,Cc1ccc(S(=O)(=O)N2CCN(C(=O)COC(=O)c3ccc(C(C)(C)C)cc3)CC2)c(C)c1,1.77
15,COC(=O)C1=C(c2cc3ccccc3s2)C[C@@H]2CC[C@H]1N2C(=O)N1CCOCC1,-13.7
16,O=C(Nc1ccc2c(c1)OCCO2)c1cnc2ccccn2c1=O,1.46
17,CC(C)(C)c1cc(C(=O)NCc2ccccc2)ccn1,8.64
18,CCOc1ccc(CCNC(=O)c2cccc(S(=O)(=O)N3CC(C)OC(C)C3)c2)cc1OCC (stereo not drawn),-27.3
19,CCC(C)NC(=O)COc1ccccc1[N+](=O)[O-] (stereo not drawn),16
